Assay results as given in the supplement of paper PMC8728848.
Some of the results follow.

Assays:
Test in all cases: glycan array binding signal (z-score within array); higher = stronger binding
Settings in all cases: glycan notation: IUPAC condensed, linker removed; mutation: R120K
[1] = target: Fuc(a1-2)Gal(b1-4)GlcNAc(b1-3)Gal(b1-4)GlcNAc(b1-2)Man(a1-3)[Fuc(a1-2)Gal(b1-4)GlcNAc(b1-3)Gal(b1-4)GlcNAc(b1-2)Man(a1-6)]Man(b1-4)GlcNAc(b1-4)GlcNAc
Method in brief: (§1)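 Arrays were curated from the Consortium for Functional Glycomics database, 3228 in total, and kept only where the protein sequence was available. Binding is expressed as a within-array Z-score. This score was averaged across arrays of the same protein sequence at different concentrations or buffers and across linkers, and negative values can be read as non-binding.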

[2] = target: Fuc(a1-2)Gal(b1-4)GlcNAc(b1-3)Gal(b1-4)GlcNAc(b1-3)Gal(b1-4)GlcNAc
Method in brief: as §1

[3] = target: Fuc(a1-2)Gal(b1-4)GlcNAc(b1-3)GalNAc
Method in brief: as §1

[4] = target: Fuc(a1-2)Gal(b1-4)GlcNAc(b1-3)[Fuc(a1-2)Gal(b1-4)GlcNAc(b1-6)]GalNAc
Method in brief: as §1

[5] = target: Fuc(a1-2)Gal(b1-4)GlcNAc(b1-3)[Fuc(a1-3)[Gal(b1-4)]GlcNAc(b1-6)]Gal(b1-4)Glc
Method in brief: as §1

[6] = target: Fuc(a1-2)Gal(b1-4)GlcNAc(b1-6)GalNAc
Method in brief: as §1

[7] = target: Fuc(a1-2)Gal(b1-4)GlcNAc6S
Method in brief: as §1

[8] = target: Fuc(a1-2)Gal(b1-4)[Fuc(a1-3)]GlcNAc
Method in brief: as §1

[9] = target: Fuc(a1-2)Gal(b1-4)[Fuc(a1-3)]GlcNAc(b1-2)Man(a1-3)[Fuc(a1-2)Gal(b1-4)[Fuc(a1-3)]GlcNAc(b1-2)Man(a1-6)]Man(b1-4)GlcNAc(b1-4)[Fuc(a1-6)]GlcNAc
Method in brief: as §1

[10] = target: Fuc(a1-2)Gal(b1-4)[Fuc(a1-3)]GlcNAc(b1-2)[Fuc(a1-2)Gal(b1-4)[Fuc(a1-3)]GlcNAc(b1-4)]Man(a1-3)[Fuc(a1-2)Gal(b1-4)[Fuc(a1-3)]GlcNAc(b1-2)Man(a1-6)]Man(b1-4)GlcNAc(b1-4)GlcNAc
Method in brief: as §1

[11] = target: Fuc(a1-2)Gal(b1-4)[Fuc(a1-3)]GlcNAc(b1-3)Gal(b1-4)[Fuc(a1-3)]GlcNAc
Method in brief: as §1

[12] = target: Fuc(a1-2)Gal(b1-4)[Fuc(a1-3)]GlcNAc(b1-3)Gal(b1-4)[Fuc(a1-3)]GlcNAc(b1-3)Gal(b1-4)[Fuc(a1-3)]GlcNAc
Method in brief: as §1

[13] = target: Fuc(a1-2)Gal(b1-4)[Fuc(a1-3)]GlcNAc(b1-3)GalNAc
Method in brief: as §1

[14] = target: Fuc(a1-2)Gal(b1-4)[Fuc(a1-3)]GlcNAc(b1-3)[Neu5Ac(a2-6)Gal(b1-4)GlcNAc(b1-6)]Gal(b1-4)Glc
Method in brief: as §1

[15] = target: Fuc(a1-2)Gal3S(b1-4)GlcNAc
Method in brief: as §1

[16] = target: Fuc(a1-2)Gal6S(b1-3)GlcNAc
Method in brief: as §1

[17] = target: Fuc(a1-2)Gal6S(b1-3)GlcNAc6S
Method in brief: as §1

Fuc(a1-2)Gal6S(b1-4)Glc = target: Fuc(a1-2)Gal6S(b1-4)Glc
Method in brief: as §1

[18] = target: Fuc(a1-2)Gal6S(b1-4)Glc6S
Method in brief: as §1

Fuc(a1-2)[Gal(a1-3)]Gal = target: Fuc(a1-2)[Gal(a1-3)]Gal
Method in brief: as §1

[19] = target: Fuc(a1-2)[Gal(a1-3)]Gal(b1-3)GalNAc
Method in brief: as §1

[20] = target: Fuc(a1-2)[Gal(a1-3)]Gal(b1-3)GalNAc(b1-3)Gal(a1-4)Gal(b1-4)Glc
Method in brief: as §1

[21] = target: Fuc(a1-2)[Gal(a1-3)]Gal(b1-3)GlcNAc
Method in brief: as §1

[22] = target: Fuc(a1-2)[Gal(a1-3)]Gal(b1-3)GlcNAc(b1-2)Man(a1-3)[Fuc(a1-2)[Gal(a1-3)]Gal(b1-3)GlcNAc(b1-2)Man(a1-6)]Man(b1-4)GlcNAc(b1-4)GlcNAc
Method in brief: as §1

[23] = target: Fuc(a1-2)[Gal(a1-3)]Gal(b1-3)GlcNAc(b1-2)Man(a1-3)[Fuc(a1-2)[Gal(a1-3)]Gal(b1-3)GlcNAc(b1-2)Man(a1-6)]Man(b1-4)GlcNAc(b1-4)[Fuc(a1-6)]GlcNAc
Method in brief: as §1

[24] = target: Fuc(a1-2)[Gal(a1-3)]Gal(b1-3)GlcNAc(b1-3)GalNAc
Method in brief: as §1

[25] = target: Fuc(a1-2)[Gal(a1-3)]Gal(b1-3)GlcNAc(b1-6)GalNAc
Method in brief: as §1

[26] = target: Fuc(a1-2)[Gal(a1-3)]Gal(b1-4)Glc
Method in brief: as §1

[27] = target: Fuc(a1-2)[Gal(a1-3)]Gal(b1-4)GlcNAc
Method in brief: as §1

[28] = target: Fuc(a1-2)[Gal(a1-3)]Gal(b1-4)GlcNAc(b1-2)Man
Method in brief: as §1

[29] = target: Fuc(a1-2)[Gal(a1-3)]Gal(b1-4)GlcNAc(b1-2)Man(a1-3)[Fuc(a1-2)[Gal(a1-3)]Gal(b1-4)GlcNAc(b1-2)Man(a1-6)]Man(b1-4)GlcNAc(b1-4)GlcNAc
Method in brief: as §1

[30] = target: Fuc(a1-2)[Gal(a1-3)]Gal(b1-4)GlcNAc(b1-2)Man(a1-3)[Fuc(a1-2)[Gal(a1-3)]Gal(b1-4)GlcNAc(b1-2)Man(a1-6)]Man(b1-4)GlcNAc(b1-4)[Fuc(a1-6)]GlcNAc
Method in brief: as §1

[31] = target: Fuc(a1-2)[Gal(a1-3)]Gal(b1-4)GlcNAc(b1-3)GalNAc
Method in brief: as §1

[32] = target: Fuc(a1-2)[Gal(a1-3)]Gal(b1-4)GlcNAc(b1-3)[Fuc(a1-2)[Gal(a1-3)]Gal(b1-4)GlcNAc(b1-6)]GalNAc
Method in brief: as §1

[33] = target: Fuc(a1-2)[Gal(a1-3)]Gal(b1-4)GlcNAc(b1-6)GalNAc
Method in brief: as §1

[34] = target: Fuc(a1-2)[Gal(a1-3)]Gal(b1-4)[Fuc(a1-3)]Glc
Method in brief: as §1

[35] = target: Fuc(a1-2)[Gal(a1-3)]Gal(b1-4)[Fuc(a1-3)]GlcNAc
Method in brief: as §1

B1: Siglec-9 (Homo sapiens), Q9Y336 (protein)
chain: MLLLLLPLLWGRERAEGQTSKLLTMQSSVTVQEGLCVHVPCSFSYPSHGWIYPGPVVHGYWFREGANTDQDAPVATNNPARAVWEETRDRFHLLGDPHTKNCTLSIRDARRSDAGRYFFKMEKGSIKWNYKHHRLSVNVTALTHRPNILIPGTLESGCPQNLTCSVPWACEQGTPPMISWIGTSVSPLDPSTTRSSVLTLIPQPQDHGTSLTCQVTFPGASVTTNKTVHLNVSYPPQNLTMTVFQGDGTVSTVLGNGSSLSLPEGQSLRLVCAVDAVDSNPPARLSLSWRGLTLCPSQPSNPGVLELPWVHLRDAAEFTCRAQNPLGSQQVYLNVSLQSKATSGVTQGVVGGAGATALVFLSFCVIFVVVRSCRKKSARPAAGVGDTGIEDANAVRGSASQGPLTEPWAEDSPPDQPPPASARSSVGEGELQYASLSFQMVKPWDSRGQEATDTEYSEIKIHR
- glycan array binding signal (z-score) [1]: -0.282
- glycan array binding signal (z-score) [2]: -0.031
- glycan array binding signal (z-score) [3]: -0.193
- glycan array binding signal (z-score) [4]: -0.037
- glycan array binding signal (z-score) [5]: -0.271
- glycan array binding signal (z-score) [6]: -0.04
- glycan array binding signal (z-score) [7]: -0.375
- glycan array binding signal (z-score) [8]: -0.297
- glycan array binding signal (z-score) [9]: 0.216
- glycan array binding signal (z-score) [10]: -0.051
- glycan array binding signal (z-score) [11]: -0.283
- glycan array binding signal (z-score) [12]: -0.319
- glycan array binding signal (z-score) [13]: -0.015
- glycan array binding signal (z-score) [14]: 0.167
- glycan array binding signal (z-score) [15]: -0.409
- glycan array binding signal (z-score) [16]: -0.487
- glycan array binding signal (z-score) [17]: 2.46
- glycan array binding signal (z-score) (Fuc(a1-2)Gal6S(b1-4)Glc): -0.486
- glycan array binding signal (z-score) [18]: 0.178
- glycan array binding signal (z-score) (Fuc(a1-2)[Gal(a1-3)]Gal): -0.129
- glycan array binding signal (z-score) [19]: 0.739
- glycan array binding signal (z-score) [20]: -0.048
- glycan array binding signal (z-score) [21]: 0.221
- glycan array binding signal (z-score) [22]: -0.329
- glycan array binding signal (z-score) [23]: 1.14
- glycan array binding signal (z-score) [24]: 0.027
- glycan array binding signal (z-score) [25]: -0.151
- glycan array binding signal (z-score) [26]: -0.003
- glycan array binding signal (z-score) [27]: -0.223
- glycan array binding signal (z-score) [28]: 0.014
- glycan array binding signal (z-score) [29]: -0.311
- glycan array binding signal (z-score) [30]: 0.237
- glycan array binding signal (z-score) [31]: -0.31
- glycan array binding signal (z-score) [32]: 5.67
- glycan array binding signal (z-score) [33]: 0.029
- glycan array binding signal (z-score) [34]: -0.618
- glycan array binding signal (z-score) [35]: 0.201
